Measured values taken from the supplement of paper PMC3334620.
The full ranking holds about 33,000 sequences; the median of “E-score (-0.5 to 0.5)” is about -0.053, and the highest 2% start at about 0.37. The list shows a part of the results.

These sequences were tested against Hap1 (UniProt P0CE41) (assay: PBM E-score (8-mer binding enrichment) (E-score (-0.5 to 0.5)); higher = stronger / more preferred TF binding; most listed sequences are background and not binding sites). Conditions: protein concentration: 200 nM; construct: GST-DNA-binding domain.
UniProt P0CE41, sequence (P0CE41 whole entry, the tested form may be a part): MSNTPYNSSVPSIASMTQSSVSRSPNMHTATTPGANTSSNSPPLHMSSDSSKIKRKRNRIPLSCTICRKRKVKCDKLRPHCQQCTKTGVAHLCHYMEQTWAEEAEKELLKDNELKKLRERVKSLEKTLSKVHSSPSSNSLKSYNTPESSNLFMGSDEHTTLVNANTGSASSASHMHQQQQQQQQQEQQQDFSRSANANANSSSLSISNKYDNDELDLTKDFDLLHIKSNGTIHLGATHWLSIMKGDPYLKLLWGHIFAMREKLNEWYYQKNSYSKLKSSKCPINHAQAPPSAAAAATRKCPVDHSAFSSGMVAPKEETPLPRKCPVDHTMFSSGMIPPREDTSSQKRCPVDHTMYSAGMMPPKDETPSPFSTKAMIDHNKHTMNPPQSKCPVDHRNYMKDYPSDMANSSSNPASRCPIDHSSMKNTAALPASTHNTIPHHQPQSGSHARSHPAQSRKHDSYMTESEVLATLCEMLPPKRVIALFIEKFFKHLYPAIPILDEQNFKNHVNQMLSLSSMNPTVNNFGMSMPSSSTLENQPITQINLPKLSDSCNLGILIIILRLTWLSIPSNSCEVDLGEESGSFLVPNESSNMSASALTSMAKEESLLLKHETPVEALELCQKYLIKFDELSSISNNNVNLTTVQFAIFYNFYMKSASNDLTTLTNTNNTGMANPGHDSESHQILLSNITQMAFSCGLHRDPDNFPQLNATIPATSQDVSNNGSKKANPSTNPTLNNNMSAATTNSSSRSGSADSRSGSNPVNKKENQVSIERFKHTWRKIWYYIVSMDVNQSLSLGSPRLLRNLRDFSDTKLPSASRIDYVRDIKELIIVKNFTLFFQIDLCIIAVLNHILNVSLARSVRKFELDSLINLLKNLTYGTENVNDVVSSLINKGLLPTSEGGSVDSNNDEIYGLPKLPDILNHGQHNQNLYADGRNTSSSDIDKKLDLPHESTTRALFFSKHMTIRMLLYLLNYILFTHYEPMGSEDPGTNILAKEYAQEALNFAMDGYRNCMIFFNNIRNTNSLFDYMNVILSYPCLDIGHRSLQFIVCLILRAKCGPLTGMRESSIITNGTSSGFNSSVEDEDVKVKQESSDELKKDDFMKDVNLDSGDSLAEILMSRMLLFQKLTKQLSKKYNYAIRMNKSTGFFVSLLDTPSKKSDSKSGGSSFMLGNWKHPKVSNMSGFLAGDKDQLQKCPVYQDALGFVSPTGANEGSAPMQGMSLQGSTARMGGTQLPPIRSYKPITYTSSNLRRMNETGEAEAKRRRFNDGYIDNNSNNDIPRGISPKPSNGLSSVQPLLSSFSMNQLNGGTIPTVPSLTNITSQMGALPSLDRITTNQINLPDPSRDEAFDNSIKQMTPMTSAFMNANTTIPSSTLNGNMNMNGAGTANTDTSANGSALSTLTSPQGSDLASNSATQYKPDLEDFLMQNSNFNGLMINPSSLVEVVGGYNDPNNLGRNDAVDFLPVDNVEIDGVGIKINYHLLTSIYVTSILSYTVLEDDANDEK
How it was run: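 Yeast transcription factors carrying a GST tag, as full-length proteins or DNA-binding domains, were produced by PURExpress in vitro transcription/translation. About 100-200 nM protein was applied to universal all-10-mer Agilent arrays, double-stranded by primer extension on fresh or once-stripped slides. Bound protein was detected with fluorescent anti-GST, and scans were normalised with masliner. The Universal PBM Analysis Suite gave each ungapped eight-base word, pooled with its reverse complement, an E-score, a modified Wilcoxon-Mann-Whitney statistic.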
For CAACGGAA, the “PBM E-score” value was 0.285.
With ATATGAAC the “PBM E-score” value was -0.0467.
For ACCGGCAT, the “PBM E-score” value was 0.327.
With CCAGTGAC the “PBM E-score” value was -0.279.
In the case of GTCACGGA, the “PBM E-score” value is reported as 0.371.
With CAGATTGG the “PBM E-score” value was -0.105.
For GTCCGGCA, the “PBM E-score” value was 0.35.
For GTCTGAAC, the “PBM E-score” value was -0.233.
With AAGAATTC the “PBM E-score” value was -0.0295.
For ACGTTTTC, the “PBM E-score” value was -0.00604.
For AAGGCGAA, the “PBM E-score” value was 0.0588.
With AGGCAACC the “PBM E-score” value was -0.0659.
With ATTAAAAA the “PBM E-score” value was 0.153.
AACCAGGC was tested, and the “PBM E-score” value was 0.0299.
In the case of TCGTGAGA, the “PBM E-score” value is reported as 0.0639.
In the case of CTCGCACC, the “PBM E-score” value is reported as -0.0557.
With AAAGGCGC the “PBM E-score” value was -0.0167.
With TCAAGTCA the “PBM E-score” value was -0.153.
For GGGATTTA, the “PBM E-score” value was 0.327.
In the case of ATGAGCTA, the “PBM E-score” value is reported as -0.0958.
AAGCTGTG was tested, and the “PBM E-score” value was -0.239.
In the case of ACCATCAT, the “PBM E-score” value is reported as -0.224.
For GTTAAATA, the “PBM E-score” value was -0.0135.
CAGCACGA was tested, and the “PBM E-score” value was -0.00414.
With GAACGGCA the “PBM E-score” value was 0.0583.
In the case of AGTATGTG, the “PBM E-score” value is reported as -0.0705.
In the case of GCCGCTAC, the “PBM E-score” value is reported as 0.319.
For CACGTAAC, the “PBM E-score” value was -0.0508.
TGTGAGAA was tested, and the “PBM E-score” value was -0.199.
For TCCACCCA, the “PBM E-score” value was -0.237.
In the case of GAGAGTCA, the “PBM E-score” value is reported as -0.254.
For ACGGGATC, the “PBM E-score” value was 0.029.
In the case of TAAGTCTA, the “PBM E-score” value is reported as -0.13.
GCACTGAA was tested, and the “PBM E-score” value was -0.0564.
ATGTAGTA was tested, and the “PBM E-score” value was -0.0187.
In the case of ATCAGCTC, the “PBM E-score” value is reported as -0.0586.
In the case of CGGCCCCC, the “PBM E-score” value is reported as 0.0446.
CTTTAGGA was tested, and the “PBM E-score” value was -0.101.
For TGTTGAAA, the “PBM E-score” value was -0.0236.
In the case of CTAACCCA, the “PBM E-score” value is reported as -0.188.
In the case of CGATTCCA, the “PBM E-score” value is reported as 0.145.
With AACATTCC the “PBM E-score” value was 0.0487.
AACCTTTG was tested, and the “PBM E-score” value was -0.0576.
With GGCCGCCC the “PBM E-score” value was 0.157.
With AAGCGTCA the “PBM E-score” value was -0.211.
GGTTAACC was tested, and the “PBM E-score” value was 0.154.
In the case of ATGAAACC, the “PBM E-score” value is reported as 0.111.
CGAGGTTC was tested, and the “PBM E-score” value was 0.153.
In the case of AGGTTACC, the “PBM E-score” value is reported as 0.164.
CGGAGTTC was tested, and the “PBM E-score” value was 0.394.
With AATTGTGA the “PBM E-score” value was -0.186.
In the case of AGTCCCAA, the “PBM E-score” value is reported as -0.0326.
In the case of CCATAACA, the “PBM E-score” value is reported as 0.018.
With AGTCTTAA the “PBM E-score” value was -0.173.
In the case of AGCGCGAC, the “PBM E-score” value is reported as -0.097.
CCCAGAAC was tested, and the “PBM E-score” value was -0.157.
For ATTTCTAA, the “PBM E-score” value was -0.0358.
In the case of ATTGGGTC, the “PBM E-score” value is reported as 0.0667.
For CTAGCTAA, the “PBM E-score” value was -0.146.
For ACCGCTCG, the “PBM E-score” value was 0.138.
With GTTGAGTA the “PBM E-score” value was -0.0445.
In the case of AATCCTAC, the “PBM E-score” value is reported as -0.124.
With CATCAAGC the “PBM E-score” value was -0.0689.
In the case of AGTCCAGC, the “PBM E-score” value is reported as -0.206.
In the case of ATTCGGCA, the “PBM E-score” value is reported as 0.224.
In the case of GAGCGCAA, the “PBM E-score” value is reported as -0.175.
In the case of TCGTATCA, the “PBM E-score” value is reported as -0.126.
GCGGGTTA was tested, and the “PBM E-score” value was 0.186.
CGAGTCAC was tested, and the “PBM E-score” value was -0.0297.
CCGCGAGA was tested, and the “PBM E-score” value was 0.0382.
For AAATTATC, the “PBM E-score” value was 0.00869.
CGTTTGAC was tested, and the “PBM E-score” value was -0.00884.
For GACGTAAC, the “PBM E-score” value was -0.0523.
In the case of GTGTAGGA, the “PBM E-score” value is reported as -0.0476.
AGATTGAC was tested, and the “PBM E-score” value was -0.0733.
With AGCAGAAG the “PBM E-score” value was -0.152.
ACAGGCGC was tested, and the “PBM E-score” value was -0.177.
GAAGGATA was tested, and the “PBM E-score” value was -0.051.
In the case of CACGCGAA, the “PBM E-score” value is reported as -0.194.
In the case of CACAAGTG, the “PBM E-score” value is reported as -0.295.
AATCTGCA was tested, and the “PBM E-score” value was -0.242.
ATCCTTTA was tested, and the “PBM E-score” value was -0.0914.
ATTTATGA was tested, and the “PBM E-score” value was -0.0066.
In the case of ACGGTTAA, the “PBM E-score” value is reported as 0.0365.
For ATGATCGG, the “PBM E-score” value was 0.249.
For GTGTATGA, the “PBM E-score” value was -0.114.
AGAGGTAT was tested, and the “PBM E-score” value was -0.0675.
GAACAAAA was tested, and the “PBM E-score” value was -0.0791.
TCTTTGAA was tested, and the “PBM E-score” value was -0.225.
In the case of CACTATCA, the “PBM E-score” value is reported as -0.209.
ATTTCTAG was tested, and the “PBM E-score” value was 0.109.
With ACCCAGGA the “PBM E-score” value was -0.237.
With CCCACATA the “PBM E-score” value was -0.112.
With CAGTTCAA the “PBM E-score” value was -0.0453.
In the case of AACCAAAA, the “PBM E-score” value is reported as 7e-05.
In the case of CGCTCCGC, the “PBM E-score” value is reported as 0.154.
In the case of CCAGCACA, the “PBM E-score” value is reported as -0.11.
For TAGGCTAA, the “PBM E-score” value was -0.138.
GTAGTGAA was tested, and the “PBM E-score” value was -0.0109.
CCGAATAG was tested, and the “PBM E-score” value was 0.249.
In the case of CATCAGTC, the “PBM E-score” value is reported as 0.00317.
In the case of ACCTAGGC, the “PBM E-score” value is reported as -0.18.
With ACGCAGTG the “PBM E-score” value was -0.295.
ACCCCAAC was tested, and the “PBM E-score” value was 0.0008.
ACGTGGAT was tested, and the “PBM E-score” value was -0.138.
In the case of ATGCGAGC, the “PBM E-score” value is reported as -0.039.
ACTCTGCT was tested, and the “PBM E-score” value was -0.162.
CCACACTC was tested, and the “PBM E-score” value was -0.00041.
GCACGTAC was tested, and the “PBM E-score” value was -0.141.
For ACACTTTC, the “PBM E-score” value was 0.105.
For ATACAAAA, the “PBM E-score” value was -0.0974.
With GCTGTGTA the “PBM E-score” value was -0.116.
CTCTAAGC was tested, and the “PBM E-score” value was 0.0646.
In the case of ACAAAGAC, the “PBM E-score” value is reported as 0.00731.
CCCCCTCA was tested, and the “PBM E-score” value was -0.332.
For CATAGGGA, the “PBM E-score” value was -0.0458.
ATATTTTG was tested, and the “PBM E-score” value was 0.0391.
ACTGTGTA was tested, and the “PBM E-score” value was -0.0809.
With AGTTACTC the “PBM E-score” value was -0.105.
With ACGCTATA the “PBM E-score” value was -0.162.
ATATATAA was tested, and the “PBM E-score” value was 0.0834.
With AAATTGAC the “PBM E-score” value was 0.0406.
With CCTTTTAG the “PBM E-score” value was -0.29.
With CCCGTATA the “PBM E-score” value was 0.186.
In the case of ATGTCTCA, the “PBM E-score” value is reported as -0.194.
In the case of TTCCCGAA, the “PBM E-score” value is reported as 0.338.
With TCCTACGA the “PBM E-score” value was -0.165.
With AAGCTCTC the “PBM E-score” value was 0.0513.
AGTGGGGA was tested, and the “PBM E-score” value was -0.0494.
With ACATTATC the “PBM E-score” value was 0.0642.
With AATTCCTA the “PBM E-score” value was -0.159.
For CTAGGCAG, the “PBM E-score” value was -0.172.
CCACAACA was tested, and the “PBM E-score” value was -0.322.
With ACACCGGT the “PBM E-score” value was 0.359.
In the case of ACATGGAA, the “PBM E-score” value is reported as 0.147.
In the case of GAGTCACA, the “PBM E-score” value is reported as -0.137.
With CGACCAGC the “PBM E-score” value was -0.0159.
CGTTCCGA was tested, and the “PBM E-score” value was 0.123.
For ACCCTACG, the “PBM E-score” value was -0.15.
In the case of AGTCATAC, the “PBM E-score” value is reported as -0.163.
ACCGGGAT was tested, and the “PBM E-score” value was 0.362.
In the case of GCACATCC, the “PBM E-score” value is reported as -0.0228.
For GTCGCAAA, the “PBM E-score” value was -0.117.
ATCCTCTC was tested, and the “PBM E-score” value was -0.186.
With GGGAGGCA the “PBM E-score” value was -0.0741.
In the case of ACAAAGAT, the “PBM E-score” value is reported as -0.287.
AGGCTGTA was tested, and the “PBM E-score” value was -0.172.
In the case of CGTACCCC, the “PBM E-score” value is reported as 0.108.
For ACAATATA, the “PBM E-score” value was 0.141.
In the case of CTATGCAA, the “PBM E-score” value is reported as -0.239.
CTCCAGTA was tested, and the “PBM E-score” value was -0.0175.
With CGCTCCTC the “PBM E-score” value was -0.0595.
With TAACCAGA the “PBM E-score” value was -0.122.
ACTGCCAT was tested, and the “PBM E-score” value was -0.163.
In the case of ACGGTACC, the “PBM E-score” value is reported as 0.207.
ATGTACAA was tested, and the “PBM E-score” value was -0.0682.
In the case of TAATTGAA, the “PBM E-score” value is reported as -0.0677.
In the case of AGACGAAA, the “PBM E-score” value is reported as 0.0745.
CCAGCGCC was tested, and the “PBM E-score” value was -0.039.
With AATCCCAT the “PBM E-score” value was -0.107.
In the case of CGAGATCG, the “PBM E-score” value is reported as 0.177.
In the case of GATCCCGC, the “PBM E-score” value is reported as 0.136.
In the case of CCGAGTCC, the “PBM E-score” value is reported as 0.292.
AAGATGCA was tested, and the “PBM E-score” value was -0.256.
For GGATACCC, the “PBM E-score” value was 0.0762.
In the case of CGCGTCCA, the “PBM E-score” value is reported as -0.0764.
In the case of CGCCTTTC, the “PBM E-score” value is reported as -0.0256.
In the case of ATAAATGA, the “PBM E-score” value is reported as -0.117.
In the case of CCGGTAGG, the “PBM E-score” value is reported as 0.327.
In the case of GCTTCTCA, the “PBM E-score” value is reported as -0.168.
CACTCGGC was tested, and the “PBM E-score” value was 0.374.
AGTCTTTC was tested, and the “PBM E-score” value was 0.0142.
